Experimental findings from PubChem BioAssay AID1956 (SRMLSC, 2009) are described below.

The other results are listed elsewhere or left out. The main result of the screen is listed elsewhere. These columns were measured beside it and carry no call.

This assay is described as follows: compounds boosting herpes simplex virus growth – fold increase, host cell viability (AID 1956). Also: tested in PC3 cells. The note with it: HSV replication augmentation in cells; fold increase: measured here: primary screen fold increase 10 uM, at 10 µM, stronger effect = higher value; viability: measured here: host cell viability series, at 25 µM, stronger effect = lower value.
Consider `O=C(Nc1ccon1)C(Sc1ccccc1)c1ccccc1` (stereo unspecified), for which the fold increase was determined as 1.32 and the viability turned out to be 93%.

As to `CCN1/C(=C/c2ccc3cc(C)cc(C)c3[n+]2CC)Sc2cc(C)ccc21`, the fold increase was determined as 7.87 and the viability was 9.29%. For `CCOc1ccc(NC(=O)CSc2nnc(Cn3c(=O)sc4ccccc43)n2C)cc1` the same measures were 1.35 and 93.3%.

Turning to `Cc1ccc(-c2nc(CSCC(=O)N3CCN(c4ccccn4)CC3)c(C)o2)cc1`, the fold increase turned out to be 1.45 and the viability came to 30.4%. Consider `N=c1n(Cc2ccccc2)c2ccccc2n1CC(O)c1ccco1` (stereo unspecified), for which the fold increase was determined as 1.54 and the viability is 91.5%. Turning to `CCSc1nc(C)c(C)c(=O)[nH]1`, the fold increase was 1.32.

In turn, `CN1CCN(C=Nc2nc3ccccc3nc2N2CCCC2)CC1` came in with a fold increase of 1.32.

As to `COc1ccc(C2C(C#N)=C(N)N(c3sc4c(c3C#N)CCCC4)C3=C2C(=O)CC(C)(C)C3)cc1` (stereo unspecified), the fold increase was 1.7 and the viability came to 75.6%.

As to `CCc1ccc(S(=O)(=O)/N=C2/C=C(Sc3ncn[nH]3)C(=O)c3ccccc32)cc1`, the fold increase came out at 1.34 and the viability came out at 12.3%. Regarding `Cc1ccc(C)c(NC(=S)NCc2ccc3c(c2)OCO3)c1`, the fold increase is 1.15.

With `O=C(N/N=C/c1cc(Cl)cc(Cl)c1O)c1ccncc1`, the fold increase came out at 1.34. Take `CCCn1nc(-c2ccccc2)c2nc3ccccc3nc21`: the fold increase amounted to 1.39 and the viability was determined as 94.3%.

Consider `S=c1[nH]nc(-c2ccc3ccccc3n2)n1-c1ccc(Cl)cc1`, for which the fold increase worked out at 1.48 and the viability amounted to 88.1%. Consider `CN1CCN(C(=O)c2ccc3c(c2)N(Cc2cccc(Cl)c2)C(=O)c2ccccc2S3=O)CC1` (stereo unspecified), for which the fold increase was found to be 1.35 and the viability was found to be 94%. For `CCOC(=O)CSc1nnc(CNC(=O)Cc2ccccc2)n1C`, in that order: 1.49 and 93.9%.

In turn, `CCC(C)(C)NC(=O)C(c1ccc(C)o1)N(Cc1cccs1)C(=O)Cn1nnc2ccccc21` (stereo unspecified) came in with a fold increase of 1.15. With `CC[n+]1c(C=C2C=C(C)OC(C)=C2)sc2ccccc21`, the fold increase was 1.79 and the viability was 48.2%. For `CCN1/C(=N\N)c2cccc3cccc1c23`, in that order: 1.74 and 99%. Take `N#Cc1ccc(/C=C(\C(=O)C(=O)O)c2ccc3ccccc3n2)cc1`: the fold increase is 2.68 and the viability came to 95.4%.

As for `CCN1C(=O)/C(=C/C=C2/CCCN2C)OC1=S`, the fold increase worked out at 1.61 and the viability amounted to 95%. Turning to `COc1ccc(N(CC(=O)NCCSC(C)(C)C)S(C)(=O)=O)c(OC)c1`, the fold increase was found to be 1.42 and the viability amounted to 94.6%. With `N#C/C(=C\C1=C(N2CCOCC2)C(=C/c2cccc([N+](=O)[O-])c2)/CC1)C(=O)Nc1ccccc1F`, the fold increase was found to be 1.64 and the viability came to 88.8%.

As for `CCOc1ccc(NC(=S)N(CC)Cc2ccccc2)cc1`, the fold increase worked out at 1.41 and the viability is 101%.

As for `Cc1ccsc1C1NC(=O)c2c(sc3c2CCN(C)C3)N1` (stereo unspecified), the fold increase came to 1.37 and the viability was determined as 94.5%. Turning to `CN1CCN(C(=S)NCCc2ccccc2)CC1`, the fold increase came out at 1.41 and the viability was determined as 94%. `COc1ccc(-n2c(O)c(/C=N/NS(=O)(=O)c3ccc(C)cc3)c3ccccc3c2=O)cc1OC`: the fold increase is 2.6 and the viability came to 98.5%. As for `CCOc1ccccc1CNS(=O)(=O)c1ccc2c(c1)oc(=O)n2C`, the fold increase turned out to be 1.41 and the viability worked out at 100%.

The compound `Cc1ccc(S(=O)(=O)N2CCN(c3nc(C)nc4sc5c(c34)CCC(C)C5)CC2)cc1` (stereo unspecified) registered a fold increase of 1.59. Turning to `COc1ccc(C(=O)c2sc3nc(-c4ccccc4)ccc3c2N)cc1`, the fold increase came out at 4.28 and the viability was 94.5%. As for `N/C(=N\OC(=O)CCC1CCCC1)c1cccnc1`, the fold increase amounted to 1.58 and the viability came out at 99.4%. As to `CCOC(=O)c1c2c3c(c(Cl)ccc3[nH]c1=O)C(=O)c1ccccc1-2`, the fold increase amounted to 1.54 and the viability came to 91.1%. For the compound `Cc1cc(Oc2ccc(N)cn2)cc(C)c1Cl`, the fold increase was determined as 1.4 and the viability was determined as 89.3%. For `C=CCOC(=O)C1=C(C)OC(N)=C(C#N)C1c1ccoc1` (stereo unspecified), in that order: 1.41 and 99.6%. Turning to `O=C(c1ccccc1)[C@@H]1[C@@H]2C(=O)N(c3ccc(F)cc3)C(=O)[C@@H]2C2CCCN21` (stereo partly specified), the fold increase worked out at 1.34 and the viability is 98.7%. For `O=c1oc2ccccc2c(NCc2cccc(F)c2)c1[N+](=O)[O-]`, the fold increase turned out to be 1.53 and the viability was determined as 103%. Take `Cc1c(N2C(=O)/C(=C\c3ccc(N(C)C)cc3)N(C)C2=S)c(=O)n(-c2ccccc2)n1C`: the fold increase was determined as 3.22 and the viability came to 88.9%. Take `CCC(c1nnnn1CCc1ccccc1)N(Cc1ccco1)Cc1cc2c(C)ccc(C)c2[nH]c1=O` (stereo unspecified): the fold increase came to 1.16. In the case of `Cc1ccc2nc(/C(C#N)=C\c3ccc([N+](=O)[O-])o3)[nH]c2c1`, the fold increase turned out to be 3.59 and the viability is 16.2%. The compound `O=[N+]([O-])c1ccc(N/N=C/c2sc(N3CCOCC3)nc2-c2ccccc2)c(S(=O)(=O)Nc2ccc(Cl)cc2)c1` had a fold increase of 1.59. As for `COc1ccc(Nc2nc3ccc(C)cc3cc2C#N)c(OC)c1`, the fold increase was 2.02 and the viability turned out to be 101%.

As for `COc1cc(/C=C2\C(=N)N3N=CSC3=NC2=O)cc(Br)c1OC(=O)c1ccco1`, the fold increase was 4.65. The compound `Cc1ccc(S(=O)(=O)Oc2ccccc2/C=C2/SC(=O)NC2=O)cc1` registered a fold increase of 1.32.

On to `O=C(Cc1nc2ccccc2[nH]c1=O)c1ccccc1`, for which the fold increase amounted to 1.47 and the viability was determined as 91.3%. `COc1cccc(C(=O)/C=C/Nc2ccc(S(=O)(=O)Nc3cnc4ccccc4n3)cc2)c1` had a fold increase of 1.32. On to `O=C1S/C(=C/c2ccc(N3CCOCC3)o2)C(=O)N1Cc1ccc(F)cc1`, for which the fold increase stood at 2.98 and the viability came out at 89.6%. Turning to `Nc1ccccc1Nc1cc(-c2ccccc2)[nH]n1`, the fold increase was 1.8 and the viability is 40.2%. For `Cc1cc(C)nc(Nc2ncc(O)n2-c2ccc(Br)cc2)n1`, in that order: 1.49 and 101%.

On to `CCCCn1c(NS(=O)(=O)c2ccc(C)cc2)c(S(=O)(=O)c2ccccc2)c2nc3ccccc3nc21`, for which the fold increase was 1.34 and the viability amounted to 88.9%. Turning to `CC1CCN(c2ccccc2NC(=S)NC(=O)c2cccs2)CC1`, the fold increase stood at 1.32.

The compound `CC1CCN(Cc2c(O)ccc3c2O/C(=C\c2ccco2)C3=O)CC1` registered a fold increase of 2.14. For the compound `CCN1CCN(C(c2cccs2)C(C)NC(=O)c2ccccc2F)CC1` (stereo unspecified), the fold increase is 1.42 and the viability amounted to 104%. For `Cc1ccc(NC(=O)CO/N=C/c2ccc(N(C)C)cc2)cc1`, in that order: 1.63 and 94.4%.

`COc1ccc(C2c3ccc(O)cc3Oc3ncn(Cc4ccco4)c(=N)c32)cc1OC` (stereo unspecified) gave a fold increase of 1.32. Consider `O=C(Cn1nnc2c(cnn2-c2ccccc2)c1=O)NCc1cccs1`, for which the fold increase amounted to 1.16. Regarding `Cc1cc(/C=C2\SC(=S)N(C)C2=O)c(C)n1-c1ccc(O)cc1`, the fold increase came out at 1.67 and the viability turned out to be 39.2%.

For the compound `CCOC(=O)CC(=O)CSc1nc(-c2ccc3c(c2)OCO3)cc(C(F)(F)F)c1C#N`, the fold increase is 2.12 and the viability came to 97.8%. Turning to `COC(=O)CNC(=O)/C=C/c1ccc(OC)cc1`, the fold increase worked out at 1.45 and the viability came out at 98.3%.

As for `CCOC(=O)N1CCN(C(=O)CN(C2CCCCC2)S(=O)(=O)c2ccc(Cl)cc2)CC1`, the fold increase amounted to 1.41 and the viability turned out to be 100%. Take `COc1cc2c3nnc(-c4ccc(F)cc4)c-3cn(Cc3ccccc3)c2cc1OC`: the fold increase is 3.03 and the viability is 5.39%. For `O=S(=O)(Nc1ccc(Cc2ccncc2)cc1)c1ccc(Cl)c(Cl)c1` the same measures were 1.43 and 77.7%. As to `CCCCC#Cc1cncc(C(=O)NN)c1`, the fold increase stood at 3.09 and the viability was found to be 96.3%. As for `O=C(O)CCCN1C(=O)/C(=C\c2ccc(-c3nc4ccccc4s3)o2)SC1=S`, the fold increase came to 2.06. On the same count and under the same terms, the value for `Cc1cc2cc(CNC(=O)c3ccc(Br)o3)ccc2n1C` was 1.33.

For the compound `CCOC(=O)CNc1ccc2c(c1)OCO2`, the fold increase was found to be 1.51 and the viability was 91.8%. `Cc1ccc2nc(/C(C#N)=C\c3ccc(N4CCOCC4)o3)[nH]c2c1`: the fold increase was 6.78 and the viability amounted to 91.1%. For `Oc1c(Cl)cc(Cl)cc1/C=N/NC(=S)NC1CC2C=CC1C2` (stereo unspecified) the same measures were 1.36 and 81.5%. Take `CC1CCN(c2nc3ccccc3nc2C(C#N)C(=O)OC2CCCCC2)CC1` (stereo unspecified): the fold increase amounted to 1.48 and the viability came out at 97.5%. In the case of `CCCCNC(=O)/C(C#N)=c1\s/c(=C\c2ccccc2OC(F)F)c(=O)n1CCCOC`, the fold increase was determined as 2.69 and the viability turned out to be 97%.

On to `COc1cc(/C=C2\C(=O)ON=C2c2ccccc2)cc(Cl)c1O`, for which the fold increase was 1.94 and the viability came out at 70.6%. In turn, `Cc1ccc(S(=O)(=O)N2CC=C(c3c(C)n(C)c4ccccc34)CC2)cc1` returned a fold increase of 1.32. In the case of `C=CCN1C=CC(=C/C=C(/C#N)C(=O)OCC)C=C1`, the fold increase was 2.2 and the viability came to 94.5%. Take `Cc1onc(-c2c(F)cccc2Cl)c1C(=O)c1ccccc1`: the fold increase turned out to be 1.37 and the viability was 97%. Take `Cc1cccc(N2CCN(C(=O)CN3CCOc4ccccc43)CC2C)c1` (stereo unspecified): the fold increase turned out to be 1.59 and the viability was determined as 96.5%. For `COc1cc(/C=C(\C#N)c2nc3ccccc3s2)ccc1OCC(=O)Nc1ccccc1` the same measures were 1.39 and 94.8%. For the compound `CC1CC(C)CN(S(=O)(=O)c2ccc(NC(=O)C3COc4ccccc4O3)cc2)C1` (stereo unspecified), the fold increase stood at 1.32 and the viability was 89.9%. Turning to `Cc1ccc(S(=O)(=O)c2c(N)n(/N=C/c3ccco3)c3nc4ccccc4nc23)cc1C`, the fold increase worked out at 1.21 and the viability is 87.4%.

With `O=C(CSc1nnc(COc2cccc3ccccc23)o1)N1c2ccccc2CCc2ccccc21`, the fold increase worked out at 1.15. With `CC(=O)c1c(C)nc2sc3c(=N)n(N)cnc3c2c1-c1ccc(Cl)cc1`, the fold increase was found to be 2.09 and the viability amounted to 87.7%. As to `c1ccc(-c2nc3ccccc3nc2-c2ccccn2)nc1`, the fold increase worked out at 1.37 and the viability is 86.4%. For `CN1CCCC1CCNc1ccc2sc3ccccc3c(=O)c2c1` (stereo unspecified) the same measures were 1.35 and 22.6%. For the compound `O=C1c2cccc3c(N4CCCCC4)ccc(c23)C(=O)N1c1ccccn1`, the fold increase was 30.3 and the viability worked out at 77.2%. Regarding `CCOc1ccc(/C=C2/SC(=O)NC2=S)cc1`, the fold increase is 1.39 and the viability worked out at 81.1%. `C=CCSc1nnc(C)c(/C=C/Nc2ccc(Cl)cc2)n1`: the fold increase is 1.64 and the viability came out at 93.9%. Consider `O=C(NCCc1ccccc1)c1cc(-c2ccco2)on1`, for which the fold increase is 1.63 and the viability is 91.7%. For `CCOC(=O)c1sc(-c2ccc(C(F)(F)F)cc2)nc1O`, the fold increase turned out to be 1.49 and the viability was determined as 105%. For `O=C(Cn1ccc(=O)[nH]c1=O)Nc1ccc(C(=O)O)c(O)c1` the same measures were 1.4 and 93.5%. As for `N#C/C(=C\Nc1ccc2cn[nH]c2c1)c1nc(-c2ccc(Cl)cc2)cs1`, the fold increase stood at 1.55 and the viability turned out to be 47.8%.

In the case of `O=c1c2c([nH]n1-c1ccccc1)CCCC2`, the fold increase came out at 1.43 and the viability was 103%. For `CCN(CC)c1ccc2cc(/C(N)=N/NC(=O)c3cccs3)c(=O)oc2c1`, in that order: 1.7 and 92.2%. For `O=C(CC(SCCO)c1ccc2c(c1)OCO2)c1cccs1` (stereo unspecified) the same measures were 1.43 and 83.4%.

For `Cc1cc2nc3c(=O)[nH]c(=O)[nH]c3nc2c([N+](=O)[O-])c1N`, the fold increase was determined as 1.47 and the viability is 101%.

Regarding `N#C/C(=C\c1ccc(N2CCOCC2)o1)C(=O)Nc1ccc(O)cc1`, the fold increase stood at 4.08 and the viability turned out to be 80.7%. Take `O=c1cc(CO)oc(C(Nc2ccccn2)c2ccsc2)c1O` (stereo unspecified): the fold increase was 1.68 and the viability came to 96.8%. Turning to `CN1C(=O)/C(=C/C=C2\SCCN2C)OC1=S`, the fold increase stood at 1.97 and the viability was 84.7%. For the compound `CC1CC(C)CN(C(=O)c2ccc3c(c2)N(Cc2ccccc2)CCS3)C1` (stereo unspecified), the fold increase worked out at 1.33 and the viability amounted to 97.4%.
